# In the supplement of paper PMC8728848:
# The list shows a part of the results.
# B1: MpAFP NterminalRI GFP (Marinomonas primoryensis) (protein)
# chain: MSDNQFPFATLGNAIGFITKLDGSVTVQSIDGQERVLKLGDPIFFGETVLTGGSGSVTIAFVDGTDVVIGGDSIVEMTDEIYNTGDNEDLVADSSSEIDALQNAILAGDDPTLIQDAPAAGNTLADQQRVDVSIERNDNSAQAGFGVDTQSSLPTYGYDTDNGNGGQATEREYSAPSLSRTLNQSPLLEHHHHHH
# Legend:
# Experiment in all cases: glycan array binding signal (z-score within array); higher = stronger binding
# Conditions in all cases: glycan notation: IUPAC condensed, linker removed
# [1] = biological target: Gal(b1-4)GlcNAc(b1-3)Gal(b1-4)GlcNAc(b1-2)Man(a1-3)[Gal(b1-4)GlcNAc(b1-3)Gal(b1-4)GlcNAc(b1-2)Man(a1-6)]Man(b1-4)GlcNAc(b1-4)[Fuc(a1-6)]GlcNAc
# Summary of the method: (§1)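 Glycan array binding is given as a within-array Z-score, which can be read as non-binding when negative. The arrays, 3228 of them, came from the Consortium for Functional Glycomics database and were retained only where the protein sequence was available. Z-scores were averaged across arrays of the same protein sequence at different concentrations or buffers and across linkers.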
# [2] = biological target: Gal(b1-4)GlcNAc(b1-3)Gal(b1-4)GlcNAc(b1-2)[Gal(b1-4)GlcNAc(b1-3)Gal(b1-4)GlcNAc(b1-6)]Man(a1-6)[Gal(b1-4)GlcNAc(b1-3)Gal(b1-4)GlcNAc(b1-2)Man(a1-3)]Man(b1-4)GlcNAc(b1-4)GlcNAc
# Summary of the method: as §1
# [3] = biological target: Gal(b1-4)GlcNAc(b1-3)Gal(b1-4)GlcNAc(b1-2)[Gal(b1-4)GlcNAc(b1-3)Gal(b1-4)GlcNAc(b1-6)]Man(a1-6)[Gal(b1-4)GlcNAc(b1-3)Gal(b1-4)GlcNAc(b1-2)Man(a1-3)]Man(b1-4)GlcNAc(b1-4)[Fuc(a1-6)]GlcNAc
# Summary of the method: as §1
# [4] = biological target: Gal(b1-4)GlcNAc(b1-3)Gal(b1-4)GlcNAc(b1-3)Gal(b1-4)GlcNAc
# Summary of the method: as §1
# [5] = biological target: Gal(b1-4)GlcNAc(b1-3)Gal(b1-4)GlcNAc(b1-3)Gal(b1-4)GlcNAc(b1-2)Man(a1-3)[Gal(b1-4)GlcNAc(b1-3)Gal(b1-4)GlcNAc(b1-3)Gal(b1-4)GlcNAc(b1-2)Man(a1-6)]Man(b1-4)GlcNAc(b1-4)GlcNAc
# Summary of the method: as §1
# [6] = biological target: Gal(b1-4)GlcNAc(b1-3)Gal(b1-4)GlcNAc(b1-3)Gal(b1-4)GlcNAc(b1-2)Man(a1-3)[Gal(b1-4)GlcNAc(b1-3)Gal(b1-4)GlcNAc(b1-3)Gal(b1-4)GlcNAc(b1-2)Man(a1-6)]Man(b1-4)GlcNAc(b1-4)[Fuc(a1-6)]GlcNAc
# Summary of the method: as §1
# [7] = biological target: Gal(b1-4)GlcNAc(b1-3)Gal(b1-4)GlcNAc(b1-3)Gal(b1-4)GlcNAc(b1-2)[Gal(b1-4)GlcNAc(b1-3)Gal(b1-4)GlcNAc(b1-3)Gal(b1-4)GlcNAc(b1-6)]Man(a1-6)[Gal(b1-4)GlcNAc(b1-3)Gal(b1-4)GlcNAc(b1-3)Gal(b1-4)GlcNAc(b1-2)Man(a1-3)]Man(b1-4)GlcNAc(b1-4)[Fuc(a1-6)]GlcNAc
# Summary of the method: as §1
# [8] = biological target: Gal(b1-4)GlcNAc(b1-3)Gal(b1-4)GlcNAc(b1-3)Gal(b1-4)GlcNAc(b1-3)Gal(b1-4)GlcNAc(b1-2)Man(a1-3)[Gal(b1-4)GlcNAc(b1-3)Gal(b1-4)GlcNAc(b1-3)Gal(b1-4)GlcNAc(b1-3)Gal(b1-4)GlcNAc(b1-2)Man(a1-6)]Man(b1-4)GlcNAc(b1-4)GlcNAc
# Summary of the method: as §1
# [9] = biological target: Gal(b1-4)GlcNAc(b1-3)Gal(b1-4)GlcNAc(b1-3)Gal(b1-4)GlcNAc(b1-3)Gal(b1-4)GlcNAc(b1-2)Man(a1-3)[Gal(b1-4)GlcNAc(b1-3)Gal(b1-4)GlcNAc(b1-3)Gal(b1-4)GlcNAc(b1-3)Gal(b1-4)GlcNAc(b1-2)Man(a1-6)]Man(b1-4)GlcNAc(b1-4)[Fuc(a1-6)]GlcNAc
# Summary of the method: as §1
# [10] = biological target: Gal(b1-4)GlcNAc(b1-3)Gal(b1-4)GlcNAc(b1-3)Gal(b1-4)GlcNAc(b1-3)Gal(b1-4)GlcNAc(b1-2)[Gal(b1-4)GlcNAc(b1-3)Gal(b1-4)GlcNAc(b1-3)Gal(b1-4)GlcNAc(b1-3)Gal(b1-4)GlcNAc(b1-6)]Man(a1-6)[Gal(b1-4)GlcNAc(b1-3)Gal(b1-4)GlcNAc(b1-3)Gal(b1-4)GlcNAc(b1-3)Gal(b1-4)GlcNAc(b1-2)Man(a1-3)]Man(b1-4)GlcNAc(b1-4)[Fuc(a1-6)]GlcNAc
# Summary of the method: as §1
# [11] = biological target: Gal(b1-4)GlcNAc(b1-3)Gal(b1-4)GlcNAc(b1-3)Gal(b1-4)GlcNAc(b1-3)Gal(b1-4)GlcNAc(b1-3)Gal(b1-4)GlcNAc(b1-2)Man(a1-3)[Gal(b1-4)GlcNAc(b1-3)Gal(b1-4)GlcNAc(b1-3)Gal(b1-4)GlcNAc(b1-3)Gal(b1-4)GlcNAc(b1-3)Gal(b1-4)GlcNAc(b1-2)Man(a1-6)]Man(b1-4)GlcNAc(b1-4)GlcNAc
# Summary of the method: as §1
# [12] = biological target: Gal(b1-4)GlcNAc(b1-3)Gal(b1-4)GlcNAc(b1-3)Gal(b1-4)GlcNAc(b1-3)Gal(b1-4)GlcNAc(b1-3)Gal(b1-4)GlcNAc(b1-2)Man(a1-3)[Gal(b1-4)GlcNAc(b1-3)Gal(b1-4)GlcNAc(b1-3)Gal(b1-4)GlcNAc(b1-3)Gal(b1-4)GlcNAc(b1-3)Gal(b1-4)GlcNAc(b1-2)Man(a1-6)]Man(b1-4)GlcNAc(b1-4)[Fuc(a1-6)]GlcNAc
# Summary of the method: as §1
# [13] = biological target: Gal(b1-4)GlcNAc(b1-3)Gal(b1-4)GlcNAc(b1-3)Gal(b1-4)GlcNAc(b1-3)Gal(b1-4)GlcNAc(b1-3)Gal(b1-4)GlcNAc(b1-2)[Gal(b1-4)GlcNAc(b1-3)Gal(b1-4)GlcNAc(b1-3)Gal(b1-4)GlcNAc(b1-3)Gal(b1-4)GlcNAc(b1-3)Gal(b1-4)GlcNAc(b1-6)]Man(a1-6)[Gal(b1-4)GlcNAc(b1-3)Gal(b1-4)GlcNAc(b1-3)Gal(b1-4)GlcNAc(b1-3)Gal(b1-4)GlcNAc(b1-3)Gal(b1-4)GlcNAc(b1-2)Man(a1-3)]Man(b1-4)GlcNAc(b1-4)[Fuc(a1-6)]GlcNAc
# Summary of the method: as §1
# [14] = biological target: Gal(b1-4)GlcNAc(b1-3)Gal(b1-4)GlcNAc(b1-3)Gal(b1-4)GlcNAc(b1-3)Gal(b1-4)GlcNAc(b1-3)Gal(b1-4)GlcNAc(b1-3)Gal(b1-4)GlcNAc(b1-2)Man(a1-3)[Gal(b1-4)GlcNAc(b1-3)Gal(b1-4)GlcNAc(b1-3)Gal(b1-4)GlcNAc(b1-3)Gal(b1-4)GlcNAc(b1-3)Gal(b1-4)GlcNAc(b1-3)Gal(b1-4)GlcNAc(b1-2)Man(a1-6)]Man(b1-4)GlcNAc(b1-4)GlcNAc
# Summary of the method: as §1
# [15] = biological target: Gal(b1-4)GlcNAc(b1-3)Gal(b1-4)GlcNAc(b1-3)GalNAc
# Summary of the method: as §1
# [16] = biological target: Gal(b1-4)GlcNAc(b1-3)Gal(b1-4)GlcNAc(b1-3)[Gal(b1-4)GlcNAc(b1-3)Gal(b1-4)GlcNAc(b1-6)]GalNAc
# Summary of the method: as §1
# [17] = biological target: Gal(b1-4)GlcNAc(b1-3)Gal(b1-4)GlcNAc(b1-6)[Gal(b1-3)]GalNAc
# Summary of the method: as §1
# [18] = biological target: Gal(b1-4)GlcNAc(b1-3)Gal(b1-4)[Fuc(a1-3)]GlcNAc(b1-3)Gal(b1-4)[Fuc(a1-3)]GlcNAc
# Summary of the method: as §1
# [19] = biological target: Gal(b1-4)GlcNAc(b1-3)GalNAc
# Summary of the method: as §1
# [20] = biological target: Gal(b1-4)GlcNAc(b1-3)[Fuc(a1-3)GlcNAc(b1-6)]Gal(b1-4)Glc
# Summary of the method: as §1
# [21] = biological target: Gal(b1-4)GlcNAc(b1-3)[Gal(b1-4)GlcNAc(b1-6)]Gal(b1-4)GlcNAc
# Summary of the method: as §1
# [22] = biological target: Gal(b1-4)GlcNAc(b1-3)[GlcNAc(b1-6)]Gal(b1-4)GlcNAc
# Summary of the method: as §1
# [23] = biological target: Gal(b1-4)GlcNAc(b1-6)Gal(b1-4)GlcNAc
# Summary of the method: as §1
# [24] = biological target: Gal(b1-4)GlcNAc(b1-6)GalNAc
# Summary of the method: as §1
# [25] = biological target: Gal(b1-4)GlcNAc(b1-6)[Gal(b1-3)]GalNAc
# Summary of the method: as §1
# [26] = biological target: Gal(b1-4)GlcNAc(b1-6)[Gal(b1-4)GlcNAc(b1-3)]GalNAc
# Summary of the method: as §1
# [27] = biological target: Gal(b1-4)GlcNAc6P
# Summary of the method: as §1
# [28] = biological target: Gal(b1-6)Gal
# Summary of the method: as §1
# [29] = biological target: Gal3S(b1-3)GalNAc
# Summary of the method: as §1
# [30] = biological target: Gal3S(b1-3)GlcNAc
# Summary of the method: as §1
# [31] = biological target: Gal3S(b1-3)[Fuc(a1-4)]GlcNAc
# Summary of the method: as §1
# [32] = biological target: Gal3S(b1-4)Glc
# Summary of the method: as §1
# [33] = biological target: Gal3S(b1-4)Glc6S
# Summary of the method: as §1
# [34] = biological target: Gal3S(b1-4)GlcNAc
# Summary of the method: as §1
# [35] = biological target: Gal3S(b1-4)[Fuc(a1-3)]Glc6S
# Summary of the method: as §1
# [36] = biological target: Gal3S(b1-4)[Fuc(a1-3)]GlcNAc
# Summary of the method: as §1
# [37] = biological target: Gal3S(b1-4)[Fuc(a1-3)]GlcNAc6S
# Summary of the method: as §1
# [38] = biological target: Gal3S4S(b1-4)GlcNAc
# Summary of the method: as §1
# [39] = biological target: Gal3S6S(b1-4)GlcNAc
# Summary of the method: as §1
# [40] = biological target: Gal3S6S(b1-4)GlcNAc6S
# Summary of the method: as §1
# [41] = biological target: Gal4S(b1-4)GlcNAc
# Summary of the method: as §1
# [42] = biological target: Gal4S6S(b1-4)GlcNAc
# Summary of the method: as §1
# [43] = biological target: Gal6P(b1-4)GlcNAc
# Summary of the method: as §1
# [44] = biological target: Gal6S(b1-3)GlcNAc
# Summary of the method: as §1
# [45] = biological target: Gal6S(b1-3)GlcNAc6S
# Summary of the method: as §1
binder,measurement,setting,value
B1,glycan array binding signal (z-score),[1],0.687
same,glycan array binding signal (z-score),[2],1.28
same,glycan array binding signal (z-score),[3],4.16
same,glycan array binding signal (z-score),[4],-0.442
same,glycan array binding signal (z-score),[5],0.792
same,glycan array binding signal (z-score),[6],0.649
same,glycan array binding signal (z-score),[7],2.76
same,glycan array binding signal (z-score),[8],0.415
same,glycan array binding signal (z-score),[9],0.795
same,glycan array binding signal (z-score),[10],1.1
same,glycan array binding signal (z-score),[11],0.417
same,glycan array binding signal (z-score),[12],0.669
same,glycan array binding signal (z-score),[13],0.974
same,glycan array binding signal (z-score),[14],0.381
same,glycan array binding signal (z-score),[15],-0.334
same,glycan array binding signal (z-score),[16],0.613
same,glycan array binding signal (z-score),[17],-0.074
same,glycan array binding signal (z-score),[18],-0.517
same,glycan array binding signal (z-score),[19],1.47
same,glycan array binding signal (z-score),[20],-0.081
same,glycan array binding signal (z-score),[21],-0.159
same,glycan array binding signal (z-score),[22],0.914
same,glycan array binding signal (z-score),[23],0.073
same,glycan array binding signal (z-score),[24],-0.473
same,glycan array binding signal (z-score),[25],0.083
same,glycan array binding signal (z-score),[26],-0.033
same,glycan array binding signal (z-score),[27],0.256
same,glycan array binding signal (z-score),[28],-0.337
same,glycan array binding signal (z-score),[29],0.044
same,glycan array binding signal (z-score),[30],-0.338
same,glycan array binding signal (z-score),[31],0.018
same,glycan array binding signal (z-score),[32],1.98
same,glycan array binding signal (z-score),[33],-0.434
same,glycan array binding signal (z-score),[34],-0.253
same,glycan array binding signal (z-score),[35],0.632
same,glycan array binding signal (z-score),[36],1.76
same,glycan array binding signal (z-score),[37],0.363
same,glycan array binding signal (z-score),[38],-0.542
same,glycan array binding signal (z-score),[39],-0.517
same,glycan array binding signal (z-score),[40],-0.33
same,glycan array binding signal (z-score),[41],-0.891
same,glycan array binding signal (z-score),[42],-0.541
same,glycan array binding signal (z-score),[43],0.296
same,glycan array binding signal (z-score),[44],-0.541
same,glycan array binding signal (z-score),[45],0.337
